The values below come from the RNAGym collection of RNA variant scans (doi:10.7554/elife.90254).

The source gives no read counts; variants with many changes may rest on few reads.

The labels stand for the following.
B1: LINE1-full (parent)
chain: UACGUAGGUGGUUUUCCCCUGAUAGUGCUAAGGGGGCCUGGAAGUUUGGACUGGGCAGAGCUCAACACAGCGUGGCAAAGUGGCUGUGGCUAGACUGCCUCUCUGGAUUCCUCGUCACUCAGCAGGGCAUCUCUGAGAGAAAUGCC

In this data set the parent is B1. Kind of data set: self-cleavage, relative activity (ratio to wild type); higher = more cleavage; in vitro, sequencing; the parent is a self-cleaving ribozyme.
Take U15C C19U U104C G114A U134C: the self-cleavage stood at 1.76.
With U15A G21A U39C A78G, the self-cleavage amounted to 0.55.
On to U15C G40U A43G U62C A117G, for which the self-cleavage turned out to be 0.
With U14C U104A A140G the figure was 1.1; with U15C A92G A141G, 0.03; with U15A G35A U73A, 1.18.
Turning to U15C U39C A77G, the self-cleavage was 2.51.
Regarding U15C C84U A92U, the self-cleavage came out at 0.2.
With U15C U20A C61U G137U the figure was 0.07; with U15C U46A G83A C145U, 0.54; with U14G A65G U87A, 0.
The value for U15A U20C A138G was 2.26; that for U15A U87A A142G was 0; that for U15A U39C C76U A94U U100A was 0.19.
The value for U15C A57G A64G was 0.57; that for U15C A22G A140G was 1.06.
For the variant U15C A78U A121G, the self-cleavage turned out to be 2.42.
With U14C U115A A117G, the self-cleavage is 1.17.
The value for U15C U47C U130C was 1.53; that for U15A U46C U112C was 0.38; that for U15A U132C C146A was 1.18.
With U15A U52C A59G C71U the figure was 0.03.
Take U14C U91A U100C C118U A124G: the self-cleavage amounted to 0.14.
The value for U15C A64U A107G U134C was 0.55; that for U14G A94G A141G was 0.27; that for U15C A65U C120U was 0.22.
With U15C U100A U132C A142G the figure was 1.16; with U15C A94U U104C U115C U132A, 0; with U15A U26A U46C C101U, 0.93.
The value for U15C G82A U119A was 1.93; that for U14C U96C U130G U132A was 0.2.
In the case of U15A A78G U108A U109C G144A, the self-cleavage came to 1.31.
On to U14G U15C U26A A31U U45C C61U U62C A79G U134A, for which the self-cleavage came to 0.
Regarding U15C U62C G72A G93U U109C, the self-cleavage stood at 0.03.
With U15C A65G A124C C133A, the self-cleavage is 0.38.
With U15C A50G U109C U119C the figure was 1.08.
As for U15C U23C U109A U130C A140G, the self-cleavage worked out at 1.53.
With U15C A65G U87A A129G the figure was 0.05; with U15C C19U A42U, 0.9.
With U15A A30G A140G the figure was 1.1.
With U15C U108A A121G the figure was 1.31; with U15C A124U A138G, 1.27; with U15C G40A G125U, 1.8.
On to U15C G88A U100A C111U A124G A142G, for which the self-cleavage stood at 0.04.
In the case of U14G A79G U102C A117U, the self-cleavage turned out to be 1.72.
For the variant U15C U108C U132C, the self-cleavage was 2.19.
Regarding U15A U96C U109C U132C, the self-cleavage came to 0.44.
Take U15A G72U G93A U96A U115C: the self-cleavage came out at 0.03.
As for U15A A77G U132G, the self-cleavage amounted to 0.49.
On to U15C A77U U87A, for which the self-cleavage was 0.11.
Consider U15C A22G G35A U45C U132C U134A, for which the self-cleavage worked out at 0.38.
With U15C U46C A65G U119A the figure was 0.
With U15C A65G A117U the figure was 0; with U15C A50G G89C, 0.
The value for U15C A43G U91C U115C was 1.84.
Take U15C U96G A121C A141U U143A: the self-cleavage is 0.
Consider U15C U47G U100A A136G, for which the self-cleavage was 1.2.
The value for U15C U23C A77G A136G U143C was 0.88; that for U15A A64G A69U U100C was 0.34.
Take U14C U85C U96A A129G: the self-cleavage came out at 0.12.
With U15C G83A A129G the figure was 1.13; with U15C U96A U115C A141G, 0.24; with U15C U87A C110A A142G, 0.09.
As to U14G U39C U73G, the self-cleavage was 1.58.
The value for U14G A43G A64G A67U was 0; that for U15A U20C G41A U100C U104A was 1.86; that for U14C U85C A94C was 0.19.
The value for U15A U87C A124U A129G U134C was 0; that for U15C G40U A65G C146U was 0.
As to U15C A50G C63U U100A A121G, the self-cleavage came to 0.44.
With U15C G21A U100C, the self-cleavage worked out at 0.
The value for U15C U20A U52A was 1.8.
The value for U15C U39A A69G U119C was 0.59; that for U14C U87C U115A was 0.18; that for U15C A57G G89A was 0.09.
With U15A A42G G125A U134C A142G, the self-cleavage was found to be 1.31.
Take U15C A92G U112C: the self-cleavage was found to be 0.22.
In the case of U15C U26C A43G A92G, the self-cleavage is 0.
The value for U15C U20A U45G was 0.
The value for U15C A22G A42U A59U A69U was 0.11.
With U14G A65G A136G the figure was 0.49; with U15A U73C U119C U143C, 1.4.
For the variant U15C A30U A121G, the self-cleavage worked out at 1.11.
As to U14C U134C G135A, the self-cleavage was determined as 1.27.
